# From US20260234211A1, “POLYPEPTIDE HAVING MODIFIED STRUCTURE AND USE THEREOF” (Guangdong Raynovent Biotech Co., Ltd., priority 2023, published 2026)
# Read-outs that look alike come from different tables or passages of the source. At least one peptide structure holds a part that was inferred or is arguable (an end, a ring closure or a residue). For some assays here: At least one compound was matched to its structure with a doubt left. Numbered stars: 1 amine (or outer) side, 2 acyl side, 3 side chain; on linkers, the order of the positions; unused ones are H or OH. Bridge positions count the residues as written; N and C are the ends. Square brackets hold non-standard residues; d marks the D form. Peptide text beside a SMILES is read from it. X3 = O=C(O)CCCCCCCCCCCCCCCCCCC(=O)N[C@@H](CCC(=O)NCCOCCOCC(=O)NCCOCCOCC(=O)N[C@@H](CCC(=O)[*:1])C(=O)[*:2])C(=O)O; αMeL = CC(C)C[C@](C)(N)C(=O)O; Aib = CC(C)(N)C(=O)O
# Key:
# GLP-1R = target: T1, GLP-1R (Homo sapiens, UniProt P43220); assay: In vitro GLP-1R agonistic activity test (cAMP, HEK293 cell line); assay type: cell-based
# T1 construct: host or cells: HEK293
# Protocol: The cell lines were constructed by Pharmaron Inc. See details in the table below.
# The test compounds were diluted at a 5-fold dilution factor in 10 points, starting from an initial concentration of 200 nM.
# 1) The cell lines were cultured respectively in complete medium at 37° C. and 5% CO2.
# 1) Eu-cAMP tracer was freeze-thawed and diluted 50 fold with detection buffer; and Ulight-anti-cAMP was freeze-thawed and diluted 150 fold with detection buffer.
# 3) 10 μL of Eu-cAMP tracer was added and then 10 μL of Uligh-anti-cAMP was added into experimental wells respectively.
# 4) The reaction plate was centrifuged at 200 g at room temperature for 30 s and left for stand at 25° C. for 1 h.
# DIO obesity mouse model = assay: Pharmacodynamics in DIO obesity mouse model; assay type: in vivo; design: Hepatic triglyceride/TG / Hepatic cholesterol/TC: unit not given here; settings: DIO mice; for Liver-body ratio / Change rate of body weight on Day 22 / Hepatic cholesterol/TC / Hepatic triglyceride/TG: 10 nmol/kg subcutaneous every 3 days; for Change rate of body weight on Day 22: first experiment; for Fasting blood glucose, Day 0: Day 0 (at grouping), 10 nmol/kg group; for Fasting blood glucose, Day 10: Day 10, 10 nmol/kg subcutaneous every 3 days; for Fasting blood glucose, Day 20: Day 20, 10 nmol/kg subcutaneous every 3 days; for Hepatic cholesterol/TC / Hepatic triglyceride/TG: liver tissue
# From the text: Experimental purpose: To evaluate the effects of multiple administration of the test substance (compound) on body weight and glucolipid metabolism.
# In this experiment, mice were used as test animals, which were induced with a high-fat diet (Research Diets: D12492) from 4-5 weeks old for 8 weeks, and the animals were grouped according to their body weights and fasting blood glucose levels, with the average body weight of the model animals being 47.2±0.3 g, the average body weight of the control animals being 27.9±0.3 g, the average fasting blood glucose of the model animals being 8.8±0.2 mmol/L, and the average fasting blood glucose of the control animals being 6.0±0.2 mmol/L. There were six animals in each group. The animals were administered immediately after grouping and were administered by subcutaneous injection every 3 days for 22 consecutive days. Both the normal control and model groups were given with vehicle (20 mM citrate buffer). Body weight and food intake were measured twice a week. Fasting blood glucose was tested on Days 10 and 20, OGTT test was performed on Day 20, and blood was collected on Day 23 to test the liver function indicators (ALT, AST, ALP) and serum lipid metabolism indicators (TC, TG, HDL, LDL). Liver tissues were taken to calculate organ indexes, and liver lipid metabolism indicators (hepatic TC, TG) were detected. The liver tissues were examined pathologically (HE, Oil Red) to evaluate the effects of the test substances on body weight and glucolipid metabolism in a high-fat diet-induced obesity mouse model.
# The experimental data of each group of animals was described as mean±standard error (X±SEM). P<0.05 indicated the statistically significant difference. All statistical analysis was completed using Graphpad 8.0 software.
# [1] = read-out: GLP-1 EC50, HEK293 cells expressing GLP-1R
# T1 sequence (P43220 24-463, species assumed): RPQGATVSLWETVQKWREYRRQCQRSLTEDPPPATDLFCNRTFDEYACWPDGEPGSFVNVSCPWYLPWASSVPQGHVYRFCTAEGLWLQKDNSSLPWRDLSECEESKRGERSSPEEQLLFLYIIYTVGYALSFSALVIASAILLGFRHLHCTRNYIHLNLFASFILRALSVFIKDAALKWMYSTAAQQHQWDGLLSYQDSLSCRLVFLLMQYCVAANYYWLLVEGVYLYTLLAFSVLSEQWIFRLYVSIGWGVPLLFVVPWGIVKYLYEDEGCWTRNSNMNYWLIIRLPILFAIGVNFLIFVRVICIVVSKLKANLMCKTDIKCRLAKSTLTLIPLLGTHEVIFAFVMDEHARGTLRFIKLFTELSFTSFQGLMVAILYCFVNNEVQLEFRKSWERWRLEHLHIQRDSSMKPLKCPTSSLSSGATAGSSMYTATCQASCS
Structure (SMILES),EC50 (GLP-1R; [1]) [pM],Liver-body ratio (DIO obesity mouse model) [g/g],Change rate of body weight on Day 22 (DIO obesity mouse model) [%],"Fasting blood glucose, Day 0 (DIO obesity mouse model) [mmol/L]","Fasting blood glucose, Day 10 (DIO obesity mouse model) [mmol/L]","Fasting blood glucose, Day 20 (DIO obesity mouse model) [mmol/L]",Hepatic cholesterol/TC (DIO obesity mouse model),Hepatic triglyceride/TG (DIO obesity mouse model),"EC50 (GLP-1R; HEK293 cells expressing GLP-1R, read-out: GLP-1 EC50) [pM]"
"CC[C@H](C)[C@H](NC(=O)[C@H](Cc1ccccc1)NC(=O)[C@@H]1CCCCNC(=O)CN(C(=O)[C@@H](N)CCCCNC(=O)[C@@H](N)CCCCNC(=O)CC[C@H](NC(=O)CCCCCCCCCCCCCCCCCCC(=O)O)C(=O)O)CC(=O)NCCCC[C@H](NC(=O)[C@H](CCCCN)NC(=O)[C@H](CC(=O)O)NC(=O)[C@H](CC(C)C)NC(=O)[C@](C)(CC(C)C)NC(=O)[C@@H](NC(=O)[C@H](CO)NC(=O)[C@H](Cc2ccc(O)cc2)NC(=O)[C@H](CC(=O)O)NC(=O)[C@H](CO)NC(=O)[C@@H](NC(=O)[C@H](Cc2ccccc2)NC(=O)[C@@H](NC(=O)CNC(=O)[C@H](CCC(N)=O)NC(=O)C(C)(C)NC(=O)[C@@H](N)Cc2ccc(O)cc2)[C@@H](C)O)[C@@H](C)O)[C@@H](C)CC)C(=O)N[C@@H](C)C(=O)N[C@@H](CCC(N)=O)C(=O)NC(C)(C)C(=O)N1)C(=O)N[C@@H](CCC(=O)O)C(=O)N[C@@H](Cc1ccc(O)cc1)C(=O)N[C@@H](CC(C)C)C(=O)N[C@@H](CC(C)C)C(=O)N[C@@H](CCC(=O)O)C(=O)NCC(=O)NCC(=O)N1CCC[C@H]1C(=O)N[C@@H](CO)C(=O)N[C@@H](CO)C(=O)NCC(=O)N[C@@H](C)C(=O)N1CCC[C@H]1C(=O)N1CCC[C@H]1C(=O)N1CCC[C@H]1C(=O)N[C@@H](CO)C(N)=O [Example 7, YAibQGT FRSDY SIα- MeLLD K^1KAQAib ^1KFIEY LLEGG PSSGA PPPS-NH2 (SEQ ID NO: 1)]",5,0.032 ± 0.002,−35.68 ± 2.00,8.4 ± 0.4,5.0 ± 0.7,6.0 ± 0.6,8.90 ± 0.46,13.89 ± 1.50,–
"CC[C@H](C)[C@H](NC(=O)[C@H](Cc1ccccc1)NC(=O)[C@@H]1CCCCNC(=O)[C@@H](NC(=O)COCCOCCNC(=O)COCCOCCNC(=O)CC[C@H](NC(=O)CCCCCCCCCCCCCCCCCCC(=O)O)C(=O)O)CCC(=O)NCCCC[C@H](NC(=O)[C@H](CCCCN)NC(=O)[C@H](CC(=O)O)NC(=O)[C@H](CC(C)C)NC(=O)[C@](C)(CC(C)C)NC(=O)[C@@H](NC(=O)[C@H](CO)NC(=O)[C@H](Cc2ccc(O)cc2)NC(=O)[C@H](CC(=O)O)NC(=O)[C@H](CO)NC(=O)[C@@H](NC(=O)[C@H](Cc2ccccc2)NC(=O)[C@@H](NC(=O)CNC(=O)[C@H](CCC(N)=O)NC(=O)C(C)(C)NC(=O)[C@@H](N)Cc2ccc(O)cc2)[C@@H](C)O)[C@@H](C)O)[C@@H](C)CC)C(=O)N[C@@H](C)C(=O)N[C@@H](CCC(N)=O)C(=O)NC(C)(C)C(=O)N1)C(=O)N[C@@H](CCC(=O)O)C(=O)N[C@@H](Cc1ccc(O)cc1)C(=O)N[C@@H](CC(C)C)C(=O)N[C@@H](CC(C)C)C(=O)N[C@@H](CCC(=O)O)C(=O)NCC(=O)NCC(=O)N1CCC[C@H]1C(=O)N[C@@H](CO)C(=O)N[C@@H](CO)C(=O)NCC(=O)N[C@@H](C)C(=O)N1CCC[C@H]1C(=O)N1CCC[C@H]1C(=O)N1CCC[C@H]1C(=O)N[C@@H](CO)C(N)=O [Example 12, YAibQGT FTSDY SIα- MeLLD K^1KAQAib ^1KFIEY LLEGG PSSGA PPPS-NH2 (SEQ ID NO: 18)] (H-Y[Aib]QGTFTSDYSI[αMeL]LDKKAQ[Aib]KFIEYLLEGGPSSGAPPPS-NH2; linker 17-21 via X3 (inferred); N-terminus assumed)",–,–,–,–,–,–,–,–,2
"CC[C@H](C)[C@H](NC(=O)[C@H](Cc1ccccc1)NC(=O)[C@@H]1CCCCNC(=O)CN(C(=O)COCCOCCNC(=O)CC[C@H](NC(=O)CCCCCCCCCCCCCCCCCCC(=O)O)C(=O)O)CC(=O)NCCCC[C@H](NC(=O)[C@H](CCCCN)NC(=O)[C@H](CC(=O)O)NC(=O)[C@H](CC(C)C)NC(=O)[C@](C)(CC(C)C)NC(=O)[C@@H](NC(=O)[C@H](CO)NC(=O)[C@H](Cc2ccc(O)cc2)NC(=O)[C@H](CC(=O)O)NC(=O)[C@H](CO)NC(=O)[C@@H](NC(=O)[C@H](Cc2ccccc2)NC(=O)[C@@H](NC(=O)CNC(=O)[C@H](CCC(N)=O)NC(=O)C(C)(C)NC(=O)[C@@H](N)Cc2ccc(O)cc2)[C@@H](C)O)[C@@H](C)O)[C@@H](C)CC)C(=O)N[C@@H](C)C(=O)N[C@@H](CCC(N)=O)C(=O)NC(C)(C)C(=O)N1)C(=O)N[C@@H](CCC(=O)O)C(=O)N[C@@H](Cc1ccccc1)C(=O)N[C@@H](CC(C)C)C(=O)N[C@@H](CC(C)C)C(=O)N[C@@H](CCC(=O)O)C(=O)NCC(=O)NCC(=O)N1CCC[C@H]1C(=O)N[C@@H](CO)C(=O)N[C@@H](CO)C(=O)NCC(=O)N[C@@H](C)C(=O)N1CCC[C@H]1C(=O)N1CCC[C@H]1C(=O)N1CCC[C@H]1C(=O)N[C@@H](CO)C(N)=O [Example 9, YAibQGT FTSDY SIα- MeLLD K^1KAQAib ^1KFIEF LLEGG PSSGA PPPS-NH2 (SEQ ID NO: 15)]",5,0.029 ± 0.001,−25.85 ± 2.05,8.6 ± 0.6,6.4 ± 0.3,5.5 ± 0.2,–,14.01. ± 0.99,–
"CC[C@H](C)[C@H](NC(=O)[C@H](Cc1ccccc1)NC(=O)[C@H](C)NC(=O)C(C)(C)NC(=O)[C@H](CCC(N)=O)NC(=O)[C@H](C)NC(=O)[C@@H]1CCCCNC(=O)CN(C(=O)COCCOCCNC(=O)CC[C@H](NC(=O)CCCCCCCCCCCCCCCCCCC(=O)O)C(=O)O)CC(=O)NCCCC[C@H](NC(=O)[C@](C)(CC(C)C)NC(=O)[C@@H](NC(=O)[C@H](CO)NC(=O)[C@H](Cc2ccc(O)cc2)NC(=O)[C@H](CC(=O)O)NC(=O)[C@H](CO)NC(=O)[C@@H](NC(=O)[C@H](Cc2ccccc2)NC(=O)[C@@H](NC(=O)CNC(=O)[C@H](CCC(N)=O)NC(=O)C(C)(C)NC(=O)[C@@H](N)Cc2ccc(O)cc2)[C@@H](C)O)[C@@H](C)O)[C@@H](C)CC)C(=O)N[C@@H](CC(=O)O)C(=O)N[C@@H](CCCCN)C(=O)N1)C(=O)N[C@@H](CCC(=O)O)C(=O)N[C@@H](Cc1ccc(O)cc1)C(=O)N[C@@H](CC(C)C)C(=O)N[C@@H](CC(C)C)C(=O)N[C@@H](CCC(=O)O)C(=O)NCC(=O)NCC(=O)N1CCC[C@H]1C(=O)N[C@@H](CO)C(=O)N[C@@H](CO)C(=O)NCC(=O)N[C@@H](C)C(=O)N1CCC[C@H]1C(=O)N1CCC[C@H]1C(=O)N1CCC[C@H]1C(=O)N[C@@H](CO)C(N)=O [Example 21, YAibQGT FTSDY SIα- MeL^1KD K^1KAQAib AFIEY LLEGG PSSGA PPPS-NH2 (SEQ ID NO: 24)]",–,0.032 ± 0.002,−32.78 ± 2.97,8.2 ± 0.4,6.5 ± 0.9,5.7 ± 0.4,9.71 ± 0.49,12.58 ± 1.27,–
